Values joined by “and” are separate entries in the source; they are usually repeats but may differ in a detail not shown here. Equal entries are not always repeated. Structures can show the parent of a compound that is named as a salt. Out of some 5,800 compounds screened, about 620 (11%) showed activity.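 Rule for the calls: active = score above a cut-off or among the top three wells of a plate; in these data no inactive exceeds 0.85.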 This is a selection; strong and weak results do not stand in their true shares.

Results on 59 molecules are retold here after the supplement of paper PMC9135407.

The assay deals with primary human hepatic stellate cells (donor 1). Description: scaled lipid accumulation score (0 = DMSO-like, 1 = nortriptyline-like); higher = stronger HSC inactivation (lipid re-accumulation), active = hit call of the paper. The conditions noted are these: 48 h.
Where [1] appears, read: library stock concentration: 10 mM.
Where [2] appears, read: library stock concentration: 1 mM.
Where [3] appears, read: library stock concentration: 3.33 mM.

As to `c1cncc([C@@H]2CCCN2)c1` [Nornicotine], the “scaled lipid accumulation score” value under setting [1] was inactive: ≤ 0.
Same read-out and setting: as for `COC(=O)/C=C/C(=O)N[C@@H]1CC[C@@]2(O)[C@H]3Cc4ccc(O)c5c4[C@@]2(CCN3CC2CC2)[C@H]1O5`, the figure is inactive: 0.325.
`O=C1CCCN1CC#CCN1CCCC1` [Oxotremorine sesquifumarate]: the “scaled lipid accumulation score” value is, setting by setting: (library stock concentration: 9.7 mM) inactive: ≤ -0.006; under setting [1], inactive: 0.028 and inactive: ≤ 0.
On to `O=C1CCCN1CC#CCN1CCCC1` [Oxotremorine sesquifumarate salt], for which the “scaled lipid accumulation score” value under setting [1] is inactive: 0.02.
In the case of `CCCCC/C=C\C/C=C\C/C=C\C/C=C\CCCC(=O)N[C@H](C)COP(=O)(O)O` [R-1 Methanandamide Phosphate], the “scaled lipid accumulation score” value under setting [2] is inactive: ≤ 0.
For the molecule `CO[C@@H]1C[C@@H](C[C@H]2CC[C@H](C)[C@H]([C@@H](C)C(=O)O)O2)O[C@]2(O[C@](C)([C@H]3CC[C@@](C)([C@@H]4O[C@@H]([C@H]5O[C@@](O)(CO)[C@H](C)C[C@@H]5C)C[C@@H]4C)O3)C[C@H]2C)[C@@H]1C` [Nigericin], the “scaled lipid accumulation score” value (library stock concentration: 6.9 mM) is inactive: 0.535.
On to `C[C@]12N[C@H](Cc3ccccc31)c1ccccc12` [Dizocilpine maleate], for which the “scaled lipid accumulation score” value was inactive: 0.219. Moreover, the “scaled lipid accumulation score” value (library stock concentration: 5.9 mM) is inactive: 0.083.
For the molecule `C[C@]12N[C@H](Cc3ccccc31)c1ccccc12` [MK-801 (Dizocilpine)], the “scaled lipid accumulation score” value reads like this: under setting [3], inactive: ≤ 0; under setting [1], inactive: ≤ 0.
Regarding `C[N+]1([O-])[C@@H]2C[C@@H](OC(=O)[C@H](CO)c3ccccc3)C[C@H]1[C@@H]1O[C@@H]12` (some centres undefined) [Scopolamin-N-oxide hydrobromide], the “scaled lipid accumulation score” value was inactive: 0.093.
Regarding `CC(=O)Nc1ccc(OC[C@](C)(O)C(=O)Nc2ccc([N+](=O)[O-])c(C(F)(F)F)c2)cc1` [Andarine], the “scaled lipid accumulation score” value was inactive: ≤ 0 under setting [3] and inactive: ≤ 0 under setting [1].
For `Oc1cc2c(cc1O)[C@H]1c3ccccc3CN[C@@H]1CC2` (racemic), the “scaled lipid accumulation score” value under setting [1] was inactive: 0.538.
As for `Oc1cc2c(cc1O)[C@H]1c3ccccc3CN[C@@H]1CC2` (racemic) [Dihydrexidine hydrochloride], the “scaled lipid accumulation score” value under setting [1] was inactive: 0.823.
Consider `CC(=O)O[C@H]1C[C@H](O[C@H]2[C@@H](O)C[C@H](O[C@H]3[C@@H](O)C[C@H](O[C@H]4CC[C@@]5(C)[C@H](CC[C@@H]6[C@@H]5C[C@@H](O)[C@]5(C)[C@@H](C7=CC(=O)OC7)CC[C@]65O)C4)O[C@@H]3C)O[C@@H]2C)O[C@H](C)[C@H]1O[C@@H]1O[C@H](CO)[C@@H](O)[C@H](O)[C@H]1O` [Lanatoside c], for which the “scaled lipid accumulation score” value runs as follows: (library stock concentration: 2 mM) active: 0.894; under setting [1], active: 0.892.
As for `CC(=O)O[C@H]1C[C@H](O[C@H]2[C@@H](O)C[C@H](O[C@H]3[C@@H](O)C[C@H](O[C@H]4CC[C@@]5(C)[C@H](CC[C@@H]6[C@@H]5C[C@@H](O)[C@]5(C)[C@@H](C7=CC(=O)OC7)CC[C@]65O)C4)O[C@@H]3C)O[C@@H]2C)O[C@H](C)[C@H]1O[C@@H]1O[C@H](CO)[C@@H](O)[C@H](O)[C@H]1O` [Lanatoside C], the “scaled lipid accumulation score” value is active: 1.08.
On to `C[C@H]1CCC[C@H](O)CCCCCc2cc(O)cc(O)c2C(=O)O1`, for which the “scaled lipid accumulation score” value under setting [1] was inactive: ≤ 0.
For `COc1ccc(CCN2CCC(Nc3nc4ccccc4n3Cc3ccc(F)cc3)CC2)cc1` [Astemizole], the “scaled lipid accumulation score” value is, setting by setting: (library stock concentration: 4.4 mM) inactive: 0.824 and inactive: 0.409; under setting [1], inactive: 0.475.
`CC(N)Cc1c[nH]c2ccc(O)cc12` (centres undefined): the “scaled lipid accumulation score” value under setting [1] is inactive: ≤ 0.
On the same count and under the same terms, as for `CC(N)Cc1c[nH]c2ccc(O)cc12` (stereo not drawn) [alpha-Methyl-5-hydroxytryptamine maleate], the figure is inactive: ≤ -0.055; as for `CN(N=O)c1cc(O)ccc1O` [Dephostatin], inactive: 0.013.
For `CN1C[C@H](CO)C=C2c3cccc4[nH]cc(c34)C[C@H]21` [Lysergol], the “scaled lipid accumulation score” value is inactive: ≤ 0.
For `Oc1ccc2c3c1O[C@H]1c4c(c5ccccc5n4Cc4ccccc4)C[C@@]4(O)C(C2)N(CC2CC2)CC[C@]314` [N-Benzylnaltrindole hydrochloride], under setting [1], the “scaled lipid accumulation score” value is inactive: 0.77.
In the case of `BrC1C(Br)C(Br)C(Br)C(Br)C1Br` (centres undefined) [1,2,3,4,5,6-Hexabromocyclohexane], the “scaled lipid accumulation score” value under setting [1] was inactive: ≤ -0.001.
As for `C[C@](O)(COc1ccc(C#N)cc1)C(=O)Nc1ccc(C#N)c(C(F)(F)F)c1`, the “scaled lipid accumulation score” value is, setting by setting: under setting [3], inactive: 0.047; under setting [1], inactive: ≤ 0.
In the case of `CCC(N)C(O)c1ccc(O)c(O)c1` (centres undefined) [Ethylnorepinephrine hydrochloride], the “scaled lipid accumulation score” value runs as follows: (library stock concentration: 8.6 mM) inactive: ≤ 0; under setting [1], inactive: ≤ -0.027.
For the molecule `CC1=C2[C@H]3OC(=O)[C@@H](C)[C@@H]3CC[C@@]2(C)C=CC1=O` [alpha-Santonin], the “scaled lipid accumulation score” value is inactive: ≤ 0.
For `C/C=C1\C[C@@H](C)[C@](O)(CO)C(=O)OCC2=CCN3CC[C@@H](OC1=O)[C@@H]23` [Retrorsine], the “scaled lipid accumulation score” value was inactive: ≤ 0.
For the molecule `c1ccc(C2(c3ccccc3)CC2C2=NCCN2)cc1` (centres undefined) [Cibenzoline succinate], under setting [1], the “scaled lipid accumulation score” value was inactive: 0.479.
For `CCCN(CCC)C1CCc2ccc(O)cc2C1` (centres undefined) [7-Hydroxy-DPAT hydrobromide], the “scaled lipid accumulation score” value under setting [1] was inactive: 0.006.
For `CCCN(CCC)C1CCc2ccc(O)cc2C1` (stereo not drawn) [R-(+)-7-Hydroxy-DPAT hydrobromide], the “scaled lipid accumulation score” value under setting [1] is inactive: ≤ -0.07.
Consider `CCCN(CCC)C1CCc2ccc(O)cc2C1` (centres undefined) [(?)-7-Hydroxy-DPAT hydrobromide], for which, under setting [1], the “scaled lipid accumulation score” value is inactive: 0.186.
Same read-out and setting: under `NNC(N)=O` [Semicarbazide hydrochloride] stands inactive: ≤ 0; under `O=C[C@H](Cl)[C@@H](O)[C@H](O)[C@H](O)CO` [2-Chloro-2-deoxy-D-glucose], inactive: ≤ -0.07.
For `CNCC(=O)c1ccc(O)c(O)c1` [Adrenalone HCl], the “scaled lipid accumulation score” value was inactive: ≤ 0 under setting [3] and inactive: ≤ -0.001 under setting [1].
As to `CNCC(=O)c1ccc(O)c(O)c1`, the “scaled lipid accumulation score” value under setting [1] is inactive: ≤ 0.
Same read-out and setting: under `O=C(NC(=O)c1c(F)cccc1F)Nc1cc(Cl)c(OC(F)(F)C(F)C(F)(F)F)cc1Cl` (centres undefined) stands inactive: 0.572; under `Cc1cc2c(C(C)C)c(O)c(O)c(C=O)c2c(O)c1-c1c(C)cc2c(C(C)C)c(O)c(O)c(C=O)c2c1O`, active: 0.999.
With `CN1C2CC(O)CC1C1OC12` (centres undefined) [Scopine], the “scaled lipid accumulation score” value by setting is: under setting [3], inactive: ≤ 0; under setting [1], inactive: ≤ 0.
In the case of `CC(C)N(CCNC(=O)CN1CCCC1=O)C(C)C` [Pramiracetam], the “scaled lipid accumulation score” value was inactive: ≤ 0 under setting [3] and inactive: ≤ 0 under setting [1].
In the case of `Cc1n[nH]c2ccc(-c3cncc(OC[C@@H](N)Cc4c[nH]c5ccccc45)c3)cc12`, the “scaled lipid accumulation score” value (library stock concentration: 400 uM) was active: 1.
As for `CC(C)(c1ccc(OCC2CO2)cc1)c1ccc(OCC2CO2)cc1` (centres undefined), the “scaled lipid accumulation score” value under setting [2] is inactive: ≤ 0, the “scaled lipid accumulation score” value under setting [1] was inactive: 0.01 and the “scaled lipid accumulation score” value (library stock concentration: 14.7 mM) was inactive: ≤ -0.012.
On to `CS(=O)(=O)O.Oc1ccc2c3c1O[C@H]1c4oc5ccccc5c4C[C@@]4(O)C(C2)N(CC2CC2)CCC314` (some centres undefined) [Naltriben methanesulfonate], for which the “scaled lipid accumulation score” value under setting [1] was active: 1.11.
Consider `CC(C)(C)NCC(O)c1cc(Cl)c(N)c(Cl)c1` (centres undefined) [Clenbuterol hydrochloride], for which the “scaled lipid accumulation score” value was inactive: 0.003.
As for `CC(C)(C)NCC(O)c1cc(Cl)c(N)c(Cl)c1` (centres undefined) [Clenbuterol], the “scaled lipid accumulation score” value (library stock concentration: 7.2 mM) is inactive: 0.063.
Consider `C=C(C)[C@H]1Cc2c(ccc3c2O[C@@H]2COc4cc(OC)c(OC)cc4[C@@H]2C3=O)O1` [Rotenone], for which, under setting [1], the “scaled lipid accumulation score” value was inactive: ≤ 0.
For the molecule `COC(=O)C1=CCCN(C)C1` [Arecoline], the “scaled lipid accumulation score” value is inactive: ≤ 0 under setting [3] and inactive: ≤ 0 under setting [1].
For `COC(=O)C1=CCCN(C)C1` [Arecoline hydrobromide], the “scaled lipid accumulation score” value is inactive: 0.062. Moreover, the “scaled lipid accumulation score” value under setting [1] was inactive: ≤ 0.
For the molecule `CC(CN)CC(=O)O` (centres undefined) [3-Methyl-GABA], the “scaled lipid accumulation score” value under setting [1] was inactive: 0.011.
Turning to `O=C1CSC(c2ccccc2Cl)c2cc(Cl)ccc2N1` (centres undefined), the “scaled lipid accumulation score” value is inactive: ≤ -0.006 under setting [1] and inactive: 0.158 (library stock concentration: 15.4 mM).
With `NNC(=O)c1ccc(O)cc1` [4-Hydroxybenzhydrazide], the “scaled lipid accumulation score” value under setting [1] is inactive: ≤ -0.07.
As to `CCCC[C@H]1C(=O)O[C@H](C)[C@H](NC(=O)c2cccc(NC=O)c2OC)C(=O)O[C@@H](C)[C@@H]1OC(=O)CC(C)C` [2-methoxyantimycin A3], the “scaled lipid accumulation score” value (library stock concentration: 9.4 mM) was inactive: 0.292.
As for `C[C@H]1O[C@@H](O[C@@H]2C[C@H](O)[C@]3(CO)[C@H]4[C@H](O)C[C@]5(C)[C@H](C6=CC(=O)OC6)CC[C@]5(O)[C@@H]4CC[C@]3(O)C2)[C@@H](O)[C@H](O)[C@H]1O.O.O.O.O.O.O.O.O` [Ouabain], the “scaled lipid accumulation score” value under setting [3] was active: 1.05 and the “scaled lipid accumulation score” value under setting [1] was active: 1.06.
On to `C[C@]12CC[C@H]3[C@@H](CC[C@@]45O[C@@H]4C(O)=C(C#N)C[C@]35C)[C@@H]1CC[C@@H]2O` [Trilostane], for which the “scaled lipid accumulation score” value under setting [3] was inactive: ≤ 0 and the “scaled lipid accumulation score” value under setting [1] is inactive: ≤ 0.
`C[C@]12CC[C@H]3[C@@H](CC[C@@]45O[C@@H]4C(O)=C(C#N)C[C@]35C)[C@@H]1CC[C@@H]2O`: the “scaled lipid accumulation score” value under setting [1] is inactive: ≤ 0.
As for `O=C(N/N=C/c1ccc([N+](=O)[O-])o1)c1cc([N+](=O)[O-])cc([N+](=O)[O-])c1O`, the “scaled lipid accumulation score” value under setting [1] is inactive: ≤ 0.
As to `Cc1c(N)nc(C(CC(N)=O)NCC(N)C(N)=O)nc1C(=O)NC(C(=O)NC(C)C(O)C(C)C(=O)NC(C(=O)NCCc1nc(-c2nc(C(=O)NCCC[S+](C)C)cs2)cs1)C(C)O)C(O[C@@H]1O[C@@H](CO)[C@@H](O)[C@H](O)[C@@H]1O[C@H]1O[C@H](CO)[C@@H](O)[C@H](OC(N)=O)[C@@H]1O)c1cnc[nH]1` (some centres undefined) [Bleomycin Sulfate], the “scaled lipid accumulation score” value was inactive: ≤ 0 under setting [3] and inactive: ≤ 0 under setting [1].
Take `CCCCC/C=C\C/C=C\C/C=C\C/C=C\CCCC(=O)NC(CO)CO` [Arachidonoyl Serinol]: the “scaled lipid accumulation score” value under setting [2] is inactive: 0.066.
Regarding `C[C@@H]1NCCc2cc(O)c(O)cc21` [Salsolinol hydrobromide], the “scaled lipid accumulation score” value was inactive: ≤ 0.
`CCC1(CC)C(=O)C=CNC1=O` [Pyrithyldione]: the “scaled lipid accumulation score” value is inactive: ≤ 0. In addition, the “scaled lipid accumulation score” value under setting [1] was inactive: 0.049.
In the case of `NCCCP(=O)(O)O` [3-Aminopropylphosphonic acid], the “scaled lipid accumulation score” value under setting [1] was inactive: ≤ 0.
